Measurements taken from the supplement of paper PMC11417369.
± gives the standard deviation of the averaged measurements. The list shows a part of the results.

System: PfAP2-EXP AP2 domain (GST-tagged)
Assay: gcPBM binding intensity (ln(normalized median fluorescence intensity)); higher = stronger DNA binding
Summary of the method: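 The binding buffer was 1× PBS containing 1% milk, 0.2 mg/ml BSA, 0.5% salmon testes DNA and 0.03% Triton X-100. In it, GST-tagged P. falciparum DNA-binding domains expressed in E. coli were applied for 1 h to an Agilent 4 × 180k array of primer-extended double-stranded 36-bp intergenic genomic probes plus negative controls. Binding intensity, read with Alexa488 anti-GST antibody and a 488 nm scan, is the highest Masliner-normalised natural-log median intensity across replicate spots of either probe orientation.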

Sequence	gcPBM binding intensity (ln)
AAAAATCGATACAAGCGTACAAAATAAAATAAAAAT [XGTACX_site5546]	8.86 ± 0.49
ACCAATAATATACATACACACATAAAGGTTTATATA [CACACA_site315]	8.46 ± 0.24
TTACACATATTATATATATATAAAAAAAAAAAATAT [CACACA_negctrl_site1684]	8.46 ± 0.36
TAATATCATTTAGACACACACTCTTACAATATGTAA [CACACA_site5434]	8.34 ± 0.39
TCTATTAACTGATGTGCATGTTATAACCTAGAAGTA [TGCATGCA_site359]	8.63 ± 0.38
AGTTCGAATATATAAAGTACATAATTATATATTTGC [XGTACX_site2604]	8.54 ± 0.42
TGGATTCGTATATGTAGTACTATTTATATGTGATTT [XGTACX_site1581]	8.48 ± 0.4
TAAATTGAGTATATTACACACATATAAATATATTAT [CACACA_site4027]	8.35 ± 0.59
TCTTATCCTACTTTTATTTTTACTTTTTTTTCTTAT [CACACA_negctrl_site111]	8.88 ± 0.31
TATATATATATATGTATATATGTATATCTATATTTA [CACACA_negctrl_site131]	10 ± 0.19
AATATATACCAACATAAATATATATATATATATATA [TGCATGCA_negctrl_site334]	10.2 ± 0.49
TAATAAATATATAATTGTACTTAAAAGAATATAAAA [XGTACX_site2928]	8.32 ± 0.38
AAGTGTATATAAAAATGTACATATTTCGATTTAAAT [XGTACX_site4161]	8.72 ± 0.35
TTAAGATAGCAAATATGTACACATTTGTAAAATAAA [XGTACX_site4837]	8.71 ± 0.35
TGTACATAAATCTAATTATTATATGTGTATATATAT [CACACA_negctrl_site1582]	8.55 ± 0.014
AGTACAGACATAGACACACACACACCCATAAAAAAA [CACACA_site1515]	8.64 ± 0.38
TCACATATTATCTTTACACACTATATATAAGTTTTA [CACACA_site2790]	8.61 ± 0.34
TCATGTTTTACAAAAACACACAAATGAATATAAACC [CACACA_site1161]	8.88 ± 0.46
CGTATGCAAGGAACCACACACACACCCATAAATGTA [CACACA_site749]	8.51 ± 0.45
AAAAAATAGACATATACACACATATGTATTTATAAT [CACACA_site5225]	8.38 ± 0.35
TAAAAATTCAATTGCACACGCACATATTTTAATAAG [CACACA_site2014]	8.35 ± 0.25
AATATAATAATAAAAACACACACGTTGATTGTATTA [CACACA_site2381]	8.32 ± 0.51
TTTTTTTTTATAAGGTGTACGTAAAATGTGTAGGTC [XGTACX_site3585]	9.12 ± 0.26

Sequence	gcPBM binding intensity (ln)
ATTTCATATAGTGTAGTGCAATTTTAAGCATCAAGG	8.84 ± 0.14
ATGTCATTATATACATGTACGCATATCTGTTTATCC [XGTACX_site3947]	8.92 ± 0.44
CCTATAATAAATAATACACACATATTGTAAATATAT [CACACA_site7496]	8.46 ± 0.53
TTAAAAATAAAAAATACACACTCTAGTCCATGTAAC [CACACA_site3640]	8.37 ± 0.35
ACTACATAATATTTACGTACCTAAAAAATTCTTATA [XGTACX_site509]	8.51 ± 0.33
TAAGTGCTTTTCAACTGTACCTTCCATTTATTTATT [XGTACX_site8589]	8.51 ± 0.24
TCTTGACTAAATATATGTACATATATTTTAATAATA [XGTACX_site701]	8.45 ± 0.3
AAAAAAAAAAAAAATACACACGTGAATGTATTGTTT [CACACA_site4856]	8.53 ± 0.42
GTATTCAAAAGTGAAACATGCAATAATATATATATA [TGCATGCA_site617]	9.73 ± 0.13
TTCTTATTTTATATTTCACACATTTTTACTATACTT [CACACA_site5817]	9.1 ± 0.28
AGAATGAAATAATATACACACAAAGGAAAAATGTAA [CACACA_site3911]	8.99 ± 0.38
ATACGTATTTATTTCACACACGTTAAAAAAATAAAA [CACACA_site6027]	8.38 ± 0.32
AAGGAGCCTATGAACACACACATGTACCTATATTAA [CACACA_site7838]	8.6 ± 0.42
ATAAAGAAAAGGAACACACAAATATGTAAATATGTA [CACACA_site6356]	8.72 ± 0.42
TTACACATAAATACCATATAAATATAATGCATATCT [CACACA_negctrl_site1731]	8.35 ± 0.37
TAAAATATTATCTACGCACACATTAAAATAAAAAAA [CACACA_site3709]	8.41 ± 0.39
AAAACATTATTCCATACACACCATACTTTTTAATAA [CACACA_site7326]	8.51 ± 0.3
CATTTGCACACGCACACACACATAAAAAGAAAAATA [CACACA_site6297]	8.58 ± 0.47
TATATATATTTAAAAAGTACAAAAAAAAAAAATGAA [XGTACX_site374]	8.74 ± 0.54
TATGTAGATAAATAAGCACACACCAAACATATAAAA [CACACA_site1182]	8.95 ± 0.55
ATCAGTCGAGATGACAGTACACAGTAGCCAGGAAAT [XGTACX_site4932]	8.93 ± 0.5
AAATGTTGAAATGATACACACATATAAATATAAATA [CACACA_site7229]	8.53 ± 0.42
AATAATAAACACAATCAAATAAAATATGAAATATAA [GTGCAC_negctrl_site307]	8.39 ± 0.35

Sequence	gcPBM binding intensity (ln)
CCCTGAGCACTTTCGTGTACTAATAGTAACAATAAT [XGTACX_site1418]	9.05 ± 0.54
AAACAAATGTATATGTGTACTTATTTTTTTGTATGT [XGTACX_site7134]	8.365 ± 0.064
TATTTATTAAAACACACACACACACCGACAAAATAA [CACACA_site4293]	8.9 ± 0.54
TTAATTTGTAAATAATGTACATATAAATGGAAAGTA [XGTACX_site2743]	9.12 ± 0.38
TAATAAAACATATATACACACATTATGTATACATAT [CACACA_site1703]	8.31 ± 0.38
TTAATATTTACAAAATGTACAGATTATTTATTGTTG [XGTACX_site1270]	8.29 ± 0.33
AATAATTATAATAAGGGTACGTATCTCACAGGAAAA [XGTACX_site4187]	8.9 ± 0.35
TTTTTTAATATTTATACATGCATGCCGATTACTATA [TGCATGCA_site26]	9.45 ± 0.2
AAATATGTCAAATATACACACATAATAACTAGAATA [CACACA_site7151]	8.56 ± 0.48
ACAATACAAATATATACACACATACATACATACATA [CACACA_site5699]	8.71 ± 0.39
ATTATATATGTATGGTGTACTAAGAATATTTTTTTA [XGTACX_site1950]	8.47 ± 0.26
AACACATACAAACACACACACAAAAAAAAAAAAAAA [CACACA_site393]	8.14 ± 0.36
TATTGAAAAAATAAAAGTACAAACTCTTATAATATG [XGTACX_site8196]	8.3 ± 0.33
CCCGAACAAACAAATAAACACACAAAAAAAAATATA [CACACA_site8540]	8.69 ± 0.74
ATTCAATATAAATACACACACACTTTTAATAATTAA [CACACA_site5963]	8.4 ± 0.54
CTAAACAAAAAATAATGTACACATACATAAAAAATA [XGTACX_site1808]	8.51 ± 0.28
TTATTTTTCTAAAAAGCATGCAAATAAAGATATGAA [TGCATGCA_site1032]	9.52 ± 0.33
TTGTTTGGTTATAATTGTACGCATGTAATTACATAT [XGTACX_site4972]	9.1 ± 0.31
ACATGGTGATAATACTGTACAAAAATAAATAAATAC [XGTACX_site897]	8.97 ± 0.45
AAAAAAACGATCGATCGTACTTATATTTACACATTC [XGTACX_site2883]	8.49 ± 0.35
ACATTCAATAAACGTCGTACACTTTCCTTTTTATGA [XGTACX_site3274]	8.9 ± 0.47
TTTTATAGTCTTATGGGTACAAAATATTAACCCACG [XGTACX_site1131]	8.21 ± 0.2
ATATATATTTTATTATGTACTTACTTCTTTTCTTAA [XGTACX_site6163]	8.68 ± 0.4

Sequence	gcPBM binding intensity (ln)
TATATATATTTATACACACACATATATTTATATATT [CACACA_site484]	8.52 ± 0.25
ATTCACTGGTATGCATGAAAAAAAATATTATTATAA [CACACA_negctrl_site702]	8.46 ± 0.4
TGAATACTTATGTTCGCACACATGCAAATTAAAAAA [CACACA_site4048]	8.62 ± 0.22
ATTTTGATAACCGTACGTACATATATATATATATAT [XGTACX_site6605]	10.3 ± 0.35
TTATGTGTATACTAAGAACACACAAGTTACTTGGTG [CACACA_site8467]	8.28 ± 0.4
TCTCCTTGTTCCTTTTTTTTAAAAAAAAACATTAAA [CACACA_negctrl_site679]	8.9 ± 0.4
ATAAAATGTATATGAATGCACTTGAAGTTTTTTTTT	8.19 ± 0.26
TTAGTGTATTAATTCTCACACACTAAGAAAAAAAAA [CACACA_site3878]	8.26 ± 0.4
ATAAATCCATGGGTAGTGCGCATTTTTTTTTTTTTT [GTGCAC_site9732]	8.82 ± 0.38
TATATGTGACATGAATGTACCCAAATTATATAAGAA [XGTACX_site3937]	8.48 ± 0.32
ATTTAATATATTTATTGTACATATAAAATAAAAGAA [XGTACX_site2413]	8.55 ± 0.26
CATAGGAACATAAGTTGTACGCTATACATACAACAT [XGTACX_site1054]	8.71 ± 0.33
TATTCTTACACGTTTGCACACTAAAATATATATATA [CACACA_site435]	9.54 ± 0.085
TAATAATAATACCAGCGTACATTTTTCTTTCCTACG [XGTACX_site4056]	8.76 ± 0.58
TATTTTTTCTTAAACACACACATATATATATATAAT [CACACA_site5567]	8.56 ± 0.39
TTCCTTAATCAATATTGTACTTTTTATAAATTTAGT [XGTACX_site3678]	8.78 ± 0.38
TGAAAATTAATAAAAAGTACATAGTCAGATTTGTGA [XGTACX_site2450]	8.57 ± 0.31
TCTGTGTTTTTGGGTACACACAAATAGCTTGTATAT [CACACA_site4002]	8.72 ± 0.19
ATATATATATATAGGGGTACTTAAATTTTACTAACC [XGTACX_site1832]	10 ± 0.38
ATTTTATTTATATACACACACATATATATATTATAT [CACACA_site822]	8.77 ± 0.44
